Positions count from the first letter of the chain named. No constants are given. Whether binding was seen depends on the method and setting. In cells and extracts the contact can be indirect. Some binding calls cover weakened binding; strength is not graded here. For some assays here: Where a sequence is shown, tags or fusion partners need not be part of it.
T1: MEF-exophilin-3 (UniProt Q91V27)
T1 sequence: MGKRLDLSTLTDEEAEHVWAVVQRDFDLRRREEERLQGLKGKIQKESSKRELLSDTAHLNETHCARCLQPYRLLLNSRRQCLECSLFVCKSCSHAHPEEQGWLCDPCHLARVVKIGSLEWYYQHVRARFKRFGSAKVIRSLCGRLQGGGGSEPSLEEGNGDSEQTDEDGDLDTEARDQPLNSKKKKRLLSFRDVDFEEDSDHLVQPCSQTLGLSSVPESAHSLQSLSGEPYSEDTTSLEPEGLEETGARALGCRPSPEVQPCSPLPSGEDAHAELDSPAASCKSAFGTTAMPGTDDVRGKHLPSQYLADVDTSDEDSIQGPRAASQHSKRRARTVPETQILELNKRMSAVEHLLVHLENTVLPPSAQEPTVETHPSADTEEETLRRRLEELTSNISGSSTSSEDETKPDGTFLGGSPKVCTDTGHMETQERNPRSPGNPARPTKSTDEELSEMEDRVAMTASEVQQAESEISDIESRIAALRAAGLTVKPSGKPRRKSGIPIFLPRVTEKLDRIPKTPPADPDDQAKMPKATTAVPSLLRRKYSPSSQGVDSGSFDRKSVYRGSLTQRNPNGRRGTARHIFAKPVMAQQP

By UniProt entry, the sequences of proteins in these tests, tags left out.
UniProt Q9QYF3: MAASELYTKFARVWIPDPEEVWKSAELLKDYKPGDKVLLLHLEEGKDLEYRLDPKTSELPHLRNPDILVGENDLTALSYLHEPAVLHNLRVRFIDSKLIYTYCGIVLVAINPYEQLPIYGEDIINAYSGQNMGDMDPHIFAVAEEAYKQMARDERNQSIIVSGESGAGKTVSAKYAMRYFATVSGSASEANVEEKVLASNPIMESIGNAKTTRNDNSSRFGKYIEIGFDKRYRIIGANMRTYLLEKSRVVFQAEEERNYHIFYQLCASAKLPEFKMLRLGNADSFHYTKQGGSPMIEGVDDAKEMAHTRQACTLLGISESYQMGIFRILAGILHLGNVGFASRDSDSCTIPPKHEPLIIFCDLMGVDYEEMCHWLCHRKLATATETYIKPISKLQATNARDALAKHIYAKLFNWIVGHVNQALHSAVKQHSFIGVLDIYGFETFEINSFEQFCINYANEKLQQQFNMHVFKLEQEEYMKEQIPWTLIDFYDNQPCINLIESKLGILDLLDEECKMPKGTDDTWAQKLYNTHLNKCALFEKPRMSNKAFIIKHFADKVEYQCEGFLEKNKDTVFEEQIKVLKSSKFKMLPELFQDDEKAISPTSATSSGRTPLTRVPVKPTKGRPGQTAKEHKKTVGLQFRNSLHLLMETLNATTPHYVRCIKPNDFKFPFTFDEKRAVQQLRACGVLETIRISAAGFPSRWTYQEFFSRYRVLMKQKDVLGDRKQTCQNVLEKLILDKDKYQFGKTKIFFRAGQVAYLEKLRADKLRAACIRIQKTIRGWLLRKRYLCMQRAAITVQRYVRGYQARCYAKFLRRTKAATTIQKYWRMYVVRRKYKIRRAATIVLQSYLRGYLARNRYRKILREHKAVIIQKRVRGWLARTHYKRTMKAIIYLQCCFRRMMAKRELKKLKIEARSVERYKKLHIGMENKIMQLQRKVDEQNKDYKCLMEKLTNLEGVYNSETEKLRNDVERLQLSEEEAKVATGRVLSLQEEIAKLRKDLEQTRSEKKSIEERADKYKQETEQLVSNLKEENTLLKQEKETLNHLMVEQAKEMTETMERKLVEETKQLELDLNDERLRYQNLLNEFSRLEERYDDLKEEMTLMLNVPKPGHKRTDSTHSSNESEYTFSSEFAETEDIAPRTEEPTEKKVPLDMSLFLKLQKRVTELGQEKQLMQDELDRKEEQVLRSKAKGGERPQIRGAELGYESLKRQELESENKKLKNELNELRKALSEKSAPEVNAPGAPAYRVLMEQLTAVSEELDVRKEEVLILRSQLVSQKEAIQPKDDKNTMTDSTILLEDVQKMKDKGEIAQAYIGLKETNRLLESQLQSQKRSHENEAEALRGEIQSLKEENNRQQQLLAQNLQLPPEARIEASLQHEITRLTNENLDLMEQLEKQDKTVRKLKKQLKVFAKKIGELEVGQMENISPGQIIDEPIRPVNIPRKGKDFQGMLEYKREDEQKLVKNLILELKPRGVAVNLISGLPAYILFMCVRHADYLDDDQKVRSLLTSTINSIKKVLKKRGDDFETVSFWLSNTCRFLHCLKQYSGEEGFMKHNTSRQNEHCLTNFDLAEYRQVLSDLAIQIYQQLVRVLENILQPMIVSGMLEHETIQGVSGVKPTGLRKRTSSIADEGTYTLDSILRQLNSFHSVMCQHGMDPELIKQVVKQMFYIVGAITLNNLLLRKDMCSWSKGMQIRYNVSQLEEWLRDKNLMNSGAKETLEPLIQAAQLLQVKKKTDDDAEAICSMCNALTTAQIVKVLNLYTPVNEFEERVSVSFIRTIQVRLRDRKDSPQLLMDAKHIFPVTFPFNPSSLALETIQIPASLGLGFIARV
UniProt Q62825: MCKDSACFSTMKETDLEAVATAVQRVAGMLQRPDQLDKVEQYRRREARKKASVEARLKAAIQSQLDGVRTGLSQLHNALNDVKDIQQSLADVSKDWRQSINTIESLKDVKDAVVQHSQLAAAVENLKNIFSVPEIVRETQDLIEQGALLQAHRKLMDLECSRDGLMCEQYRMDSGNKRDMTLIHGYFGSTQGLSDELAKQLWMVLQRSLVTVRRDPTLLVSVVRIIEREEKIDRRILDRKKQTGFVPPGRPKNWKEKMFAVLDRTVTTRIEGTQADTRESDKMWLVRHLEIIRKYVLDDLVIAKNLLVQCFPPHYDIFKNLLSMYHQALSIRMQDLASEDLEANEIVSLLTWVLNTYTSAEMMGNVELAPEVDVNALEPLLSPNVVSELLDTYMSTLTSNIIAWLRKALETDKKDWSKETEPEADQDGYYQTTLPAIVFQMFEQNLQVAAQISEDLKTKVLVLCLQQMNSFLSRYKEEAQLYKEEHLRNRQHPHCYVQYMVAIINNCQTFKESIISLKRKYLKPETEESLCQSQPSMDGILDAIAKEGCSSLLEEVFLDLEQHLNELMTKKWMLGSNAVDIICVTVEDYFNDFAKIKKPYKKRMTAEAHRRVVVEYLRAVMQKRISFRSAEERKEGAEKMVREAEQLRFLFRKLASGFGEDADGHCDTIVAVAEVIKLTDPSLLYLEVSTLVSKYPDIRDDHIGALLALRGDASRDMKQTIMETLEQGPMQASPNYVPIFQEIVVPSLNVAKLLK
UniProt P27732: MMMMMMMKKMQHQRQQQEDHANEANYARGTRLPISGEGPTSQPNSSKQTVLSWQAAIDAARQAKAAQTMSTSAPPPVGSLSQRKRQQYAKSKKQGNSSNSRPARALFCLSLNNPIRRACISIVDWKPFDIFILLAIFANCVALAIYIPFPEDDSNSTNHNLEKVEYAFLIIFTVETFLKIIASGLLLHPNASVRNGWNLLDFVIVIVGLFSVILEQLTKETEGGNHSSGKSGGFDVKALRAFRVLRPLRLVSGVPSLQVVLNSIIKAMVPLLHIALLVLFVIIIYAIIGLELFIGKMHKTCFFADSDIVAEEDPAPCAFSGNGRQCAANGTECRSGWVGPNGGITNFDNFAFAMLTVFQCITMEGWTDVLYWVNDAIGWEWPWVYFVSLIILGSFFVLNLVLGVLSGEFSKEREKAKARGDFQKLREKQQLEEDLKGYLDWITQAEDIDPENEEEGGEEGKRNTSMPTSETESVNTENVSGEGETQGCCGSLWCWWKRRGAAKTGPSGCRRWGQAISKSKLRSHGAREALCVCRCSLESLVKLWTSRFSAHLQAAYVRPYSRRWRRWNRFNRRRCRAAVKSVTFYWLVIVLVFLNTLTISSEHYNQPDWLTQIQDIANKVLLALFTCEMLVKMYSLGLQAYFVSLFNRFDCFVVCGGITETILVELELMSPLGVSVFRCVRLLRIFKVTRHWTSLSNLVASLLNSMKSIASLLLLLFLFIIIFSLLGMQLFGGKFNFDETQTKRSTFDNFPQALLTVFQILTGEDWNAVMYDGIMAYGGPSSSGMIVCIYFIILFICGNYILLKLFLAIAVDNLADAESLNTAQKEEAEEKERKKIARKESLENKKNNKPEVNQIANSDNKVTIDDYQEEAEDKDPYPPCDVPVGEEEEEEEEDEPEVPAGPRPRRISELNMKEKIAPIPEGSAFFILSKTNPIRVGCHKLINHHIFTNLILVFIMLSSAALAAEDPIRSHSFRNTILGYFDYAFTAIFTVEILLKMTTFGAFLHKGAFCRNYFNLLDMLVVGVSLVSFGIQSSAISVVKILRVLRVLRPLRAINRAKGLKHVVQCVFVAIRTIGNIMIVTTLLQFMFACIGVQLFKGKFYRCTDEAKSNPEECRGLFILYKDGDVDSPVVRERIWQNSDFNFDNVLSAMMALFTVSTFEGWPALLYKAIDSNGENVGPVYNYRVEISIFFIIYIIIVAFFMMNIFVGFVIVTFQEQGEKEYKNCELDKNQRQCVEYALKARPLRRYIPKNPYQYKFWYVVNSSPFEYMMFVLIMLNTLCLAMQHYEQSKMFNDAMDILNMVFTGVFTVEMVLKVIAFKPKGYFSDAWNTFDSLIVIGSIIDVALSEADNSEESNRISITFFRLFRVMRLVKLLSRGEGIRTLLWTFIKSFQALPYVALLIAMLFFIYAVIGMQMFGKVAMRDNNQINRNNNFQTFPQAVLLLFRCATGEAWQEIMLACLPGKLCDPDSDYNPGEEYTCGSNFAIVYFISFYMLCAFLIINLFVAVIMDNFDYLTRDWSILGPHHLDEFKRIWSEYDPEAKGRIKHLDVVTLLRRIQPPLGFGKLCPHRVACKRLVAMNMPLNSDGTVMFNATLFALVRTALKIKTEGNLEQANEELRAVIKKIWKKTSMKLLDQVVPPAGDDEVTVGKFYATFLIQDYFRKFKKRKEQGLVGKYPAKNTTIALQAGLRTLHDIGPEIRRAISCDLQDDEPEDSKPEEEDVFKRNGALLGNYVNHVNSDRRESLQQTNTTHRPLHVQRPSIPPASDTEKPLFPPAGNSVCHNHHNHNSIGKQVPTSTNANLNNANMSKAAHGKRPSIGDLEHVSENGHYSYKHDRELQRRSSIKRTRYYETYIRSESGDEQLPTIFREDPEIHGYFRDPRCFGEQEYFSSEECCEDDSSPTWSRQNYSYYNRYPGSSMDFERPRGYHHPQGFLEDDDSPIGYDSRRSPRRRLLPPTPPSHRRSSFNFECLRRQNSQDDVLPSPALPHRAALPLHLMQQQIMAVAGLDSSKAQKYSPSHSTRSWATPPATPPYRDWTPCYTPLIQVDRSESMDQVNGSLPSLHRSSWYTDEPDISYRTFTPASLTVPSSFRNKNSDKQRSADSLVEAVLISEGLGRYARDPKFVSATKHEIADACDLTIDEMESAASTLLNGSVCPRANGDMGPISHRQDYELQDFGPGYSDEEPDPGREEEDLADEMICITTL
UniProt P60881: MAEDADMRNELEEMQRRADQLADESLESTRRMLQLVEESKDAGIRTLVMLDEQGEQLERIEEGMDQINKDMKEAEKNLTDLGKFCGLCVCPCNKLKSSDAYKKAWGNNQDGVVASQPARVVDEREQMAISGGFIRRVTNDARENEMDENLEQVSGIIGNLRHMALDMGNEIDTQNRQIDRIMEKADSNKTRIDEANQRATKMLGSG

T2: MEF-exophilin-8 (wild type) (mouse) (UniProt Q8K3I4)
T2 sequence: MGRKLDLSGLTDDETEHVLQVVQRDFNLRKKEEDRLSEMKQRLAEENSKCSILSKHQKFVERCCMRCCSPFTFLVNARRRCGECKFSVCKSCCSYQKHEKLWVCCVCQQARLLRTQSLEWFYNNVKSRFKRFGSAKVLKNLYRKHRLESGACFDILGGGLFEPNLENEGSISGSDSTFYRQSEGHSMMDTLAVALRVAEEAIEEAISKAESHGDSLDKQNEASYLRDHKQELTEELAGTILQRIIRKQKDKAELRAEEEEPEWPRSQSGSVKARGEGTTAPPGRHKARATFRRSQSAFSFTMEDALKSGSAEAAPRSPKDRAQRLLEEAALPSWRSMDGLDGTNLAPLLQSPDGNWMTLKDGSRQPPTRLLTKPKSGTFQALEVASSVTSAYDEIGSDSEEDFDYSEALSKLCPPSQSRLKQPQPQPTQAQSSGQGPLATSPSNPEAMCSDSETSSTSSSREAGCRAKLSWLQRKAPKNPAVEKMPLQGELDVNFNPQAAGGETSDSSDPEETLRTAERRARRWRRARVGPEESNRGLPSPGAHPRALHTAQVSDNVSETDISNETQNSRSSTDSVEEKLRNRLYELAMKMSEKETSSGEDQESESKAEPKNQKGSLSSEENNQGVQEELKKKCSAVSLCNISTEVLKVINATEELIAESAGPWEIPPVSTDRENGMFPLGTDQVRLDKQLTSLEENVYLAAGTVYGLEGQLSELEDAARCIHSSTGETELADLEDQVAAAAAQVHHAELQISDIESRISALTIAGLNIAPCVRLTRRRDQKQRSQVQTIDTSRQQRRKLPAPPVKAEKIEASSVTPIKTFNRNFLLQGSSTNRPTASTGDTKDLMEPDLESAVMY

T3: MEF-exophilin-8 PA (ABD) mutant (mouse) (UniProt Q8K3I4)
T3 sequence: T2 sequence with R798A, P801A, P804A

T4: exophilin-8, endogenous in INS-1 832/13 cells (rat (endogenous in INS-1 832/13)) (UniProt Q7TNY7)
T4 sequence: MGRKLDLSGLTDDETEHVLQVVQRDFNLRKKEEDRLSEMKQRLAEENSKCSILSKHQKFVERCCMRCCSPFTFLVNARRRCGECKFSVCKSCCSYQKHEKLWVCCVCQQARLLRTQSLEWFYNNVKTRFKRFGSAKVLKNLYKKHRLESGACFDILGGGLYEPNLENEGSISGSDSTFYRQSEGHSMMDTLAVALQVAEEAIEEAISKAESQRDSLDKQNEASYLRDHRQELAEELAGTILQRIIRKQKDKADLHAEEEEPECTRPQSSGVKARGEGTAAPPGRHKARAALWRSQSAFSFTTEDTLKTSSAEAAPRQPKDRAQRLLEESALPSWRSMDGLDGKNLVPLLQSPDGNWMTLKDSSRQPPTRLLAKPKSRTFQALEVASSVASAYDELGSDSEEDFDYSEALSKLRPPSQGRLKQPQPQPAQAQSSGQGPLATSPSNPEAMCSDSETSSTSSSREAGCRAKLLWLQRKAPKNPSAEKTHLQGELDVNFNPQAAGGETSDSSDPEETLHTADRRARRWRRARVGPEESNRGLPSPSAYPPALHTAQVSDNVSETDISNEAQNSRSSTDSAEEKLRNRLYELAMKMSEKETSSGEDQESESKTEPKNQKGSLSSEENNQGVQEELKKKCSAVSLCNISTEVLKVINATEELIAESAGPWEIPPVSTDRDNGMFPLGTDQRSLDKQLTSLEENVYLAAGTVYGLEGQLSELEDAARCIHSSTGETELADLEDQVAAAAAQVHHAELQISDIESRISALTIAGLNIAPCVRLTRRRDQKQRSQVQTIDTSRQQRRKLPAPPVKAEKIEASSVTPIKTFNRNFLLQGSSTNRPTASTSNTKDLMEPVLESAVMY

B1: HA-RIM-BP2 (protein, UniProt Q80U40 1-1072)
chain: MREAAERRQQLELEHEQALAFLNAKQQEIQLLQQAQVEAKKEHEGAVQLLESKVRELEEKCRVQSEQFNLLSRDLEKFRQHTGSIDLLGSSSVALLDVPLAPGKPFPQYMNGLATSIHKGHEGPTGHYSVIGDYIPLSGDKLESPCVKPSFLLRSSSPRCRFESEMDNDRNSNNSKQSSSGKVHLCVARYSYNPFDGPNENPEAELPLTAGKYLYVYGDMDEDGFYEGELLDGQRGLVPSNFVDFIQDNESRLAGTLGSEQDQNFLNHSGISLERDSILHLHSPTQVDSGITDNGGGTLDVNIDDIGEDTVPYPRKITLIKQLAKSVIVGWEPPAVPPGWGTVSSYNVLVDKETRMSLALGRRTKALIEKLNTAACTYRISVQCVTSRGNSDELQCTLLVGKDVVVAPSQLRVDNITQISAQLSWLPTNSNYSHIIFLNEEELDIVKAARYKYQFFNLRPNMAYKVKVLAQPHQMPWQLPLEQREKKEACVEFSTLPAGPPAPPQDVTVHAGATAASVQVSWKPPALTPTGLSNGANVTGYGVYAKGQRVAEVIAPTADGTAVELIRLRSLEAKAVSVRTLSVQGESMDSALAAIPPDLLVPPAPHPRTAPPPKPLASDMDTKDQHLGPHVKVDESWEQSRSPGPAHGHMLEPPDMHSAGPGRRSPSPSRILPQPQGAPVSTTVAKAMAREAAQRVAESNRLEKRSLFLEQSSAGQYTNSDEEDGYASPEVKRRGTSVDDFLKGSELGKQPHCCHGDEYHTESSRGSDLSDIMEEDEEELYSEMQLEDGGRRRPSGTSHNALKILGNSTLMGRADRMEHVSRRYSHSGGGSHRHRPAMAPSIDEYTGRDHLSPDFYDESETDPGAEELPARIFVALFDYDPLTMSPNPDAAEEELPFKEGQIIKVYGDKDADGFYRGETCARLGLIPCNMVSEIHADDEEMMDQLLRQGFLPLNTPVEKIERSRRSGRGHSVPTRRMVALYDYDPRESSPNVDVEAELPFCTGDIITVFGEIDEDGFYYGELNGQKGLVPSNFLEEVPDDVEVHLSDAPPHYSHDPPMRSKAKRKKSVHFTP
B2: Rab27a, endogenous in INS-1 832/13 cells (protein, UniProt P23640 1-221)
chain: MSDGDYDYLIKFLALGDSGVGKTSVLYQYTDGKFNSKFITTVGIDFREKRVVYRANGPDGTVGRGQRIHLQLWDTAGQERFRSLTTAFFRDAMGFLLLFDLTNEQSFLNVRNWISQLQMHAYCENPDIVLCGNKSDLEDQRAVKEEEARELAEKYGIPYFETSAANGTNISQAIEMLLDLIMKRMERCVDKSWIPEGVVRSNGHTSTDQLSEEKEKGLCGC
B3: RIM-BP2, endogenous in INS-1 832/13 cells (protein, UniProt Q9JIR1 1-1049)
chain: MREAAERRQQLELEHEQALAILNAKQQEIQLLQQSKVRELEEKCRVQSEQFNLLSRDLEKFRQHAGSIDLLGSNSVALLDVPLAPGKPFSQYMNGLATSIHKGHEGPTGHYSVIGDYIPLSGDKLESPCVKPSFLLRSSSPRCRFESEMDDDRSSNKSKHSSSGKVHLCVARYSYNPFDGPNENPEAELPLTAGKYLYVYGDMDEDGFYEGELLDGQRGLVPSNFVDFIQDNESRFAGTLGSEQDQNFLNHSGISLERDSILHLHSPTQVDSGITDNGGGTLDVNIDDIGEDIVPYPRKITLIKQLAKSVIVGWEPPAVPPGWGTVSSYNVLVDKETRMSLALGRRTKALIEKLNTAACTYRISVQCVTSRGNSDELQCTLLVGKDVVVAPSQLRVDNITQISAQLSWLPTNSNYSHIIFLNEEELDIVKAARYKYQFFNLRPNMAYKVKVLAQPHQMPWQLPLEQREKDEACVEFSTLPAGPPAPPQDVTVQAGATTASVQVSWKPPALTPTGLSNGANVTGYGVYAKGQRVAEVIAPTANGAAVELVRLRSLEAKAVSVRTLSAQGESMDSALAAIPPDLLVPPAPHPRTAPPPKPLTSDMDTKDLGPHVKVDESWEQSRPPGPAHGHMLEPPDMHSTGPGRRSPSPSRILPQPQGAPVSTTVAKAMAREAAQRVAETSKLEKRSLFLEQSSAGPYANSDEEDGYASPEVKRRGTSVDDFLKGSELGQQPHCCHGDEYHTESSRGSDLSDIMEEDEEELYSEMQLEDGGRRRPSGTSHNALKILGNSALMGRGDRMEHVSRRYSHSGGGPQRHRPMAPSIDEYTGRDHLSPDFYDESETDPGAEELPARIFVALFDYDPLTMSPNPDAAEEELPFKEGQIIKVYGDKDADGFYRGETCARLGLIPCNMVSEIHADDEEMMDQLLRQGFLPLNTPVEKIERSRRSGRGHSVPTRRMVALYDYDPRESSPNVDVEAELLFCTGDIITVFGEIDEDGFYYGELNGQKGLVPSNFLEEVPDDVEVHLSDAPPHYSHDPPMRTKAKRVSQPP

Tests used:
[1] = target: T1, MEF-exophilin-3; test: co-IP; INS-1 832/13 cells infected with adenoviruses expressing HA-RIM-BP2 and GFP, MEF-exophilin-8 (WT or PA (ABD)) or MEF-exophilin-3; anti-FLAG immunoprecipitates blotted for endogenous proteins
[2] = target: T2, MEF-exophilin-8 (wild type) (mouse); test: as above
[3] = target: T3, MEF-exophilin-8 PA (ABD) mutant (mouse); test: as above
[4] = target: T4, exophilin-8, endogenous in INS-1 832/13 cells (rat (endogenous in INS-1 832/13)); test: co-IP; INS-1 832/13 cells, endogenous proteins; immunoprecipitates with anti-exophilin-8 antibody or control IgG blotted with anti-RIM-BP2

Row | Molecule | binding [1] | binding [2] | binding [3] | binding [4]
1 | myosin-Va, endogenous in INS-1 832/13 cells (from UniProt Q9QYF3 1-1828) | binds | no binding | no binding | 
2 | Munc13-1, endogenous in INS-1 832/13 cells (from UniProt Q62768 1-1735) |  |  | no binding | 
3 | Sec6, endogenous in INS-1 832/13 cells (from UniProt Q62825 1-755) |  | binds | binds | 
4 | Cav1.3, endogenous in INS-1 832/13 cells (from UniProt P27732 1-2203) |  |  | no binding | 
5 | SNAP25, endogenous in INS-1 832/13 cells (from UniProt P60881 1-206) |  | no binding | no binding | 
6 | B1 |  | binds | no binding | 
7 | B2 |  | binds | binds | 
8 | B3 |  |  |  | binds
